Data taken from PubChem BioAssay AID1240 (Sanford-Burnham Center for Chemical Genomics, 2008).
Out of some 50,000 compounds screened, about 800 (1.6%) showed an effect of 50% or more. The list shows a part of the results.

Each compound was assayed against Bcl-2-like protein 10 (Homo sapiens) (UniProt Q9HD36) (assay: Phenotype converters, Bcl-B/TR3 peptide binding displacement, primary biochemical FP (AID 1240;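 further: 0% = Bcl-B with tracer peptide and DMSO and 100% = tracer peptide lacking Bcl-B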)). Details: GST-Bcl-B / FITC-TR3 peptide fluorescence polarization; stronger effect = higher value; compound at 3.75 mg/L.
Chain of UniProt Q9HD36 (Q9HD36 whole entry, looked up): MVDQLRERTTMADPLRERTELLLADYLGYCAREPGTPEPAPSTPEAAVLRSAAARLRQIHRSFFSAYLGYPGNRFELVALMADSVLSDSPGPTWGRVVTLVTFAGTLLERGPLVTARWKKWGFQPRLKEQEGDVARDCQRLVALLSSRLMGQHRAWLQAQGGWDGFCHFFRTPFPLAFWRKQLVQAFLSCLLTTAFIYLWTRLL

In order of falling displacement:
1. C=CCN1C(=O)/C(=C\c2ccc(OCc3ccccc3Cl)cc2)SC1=S  95.7%
2. O=C(O)c1cccc(N2C(=O)c3ccc4c5c(ccc(c35)C2=O)CC4)c1  45.4%
3. O=C(CN1C(=O)/C(=C\c2ccccc2Cl)SC1=S)Nc1cc([N+](=O)[O-])ccc1O  33.3%
4. CCCOc1ccc(C(=O)Nc2scc(-c3ccc(C)cc3)c2C(=O)OCC)cc1  25.6%
5. CN(C)c1ccc(/C=C/c2cc(C(F)(F)F)[nH]c(=O)n2)cc1[N+](=O)[O-]  14.7%
6. S=C(NNc1nc2ccccc2s1)NC1CCCCC1  13.7%
7. CSc1ccc(S(=O)(=O)N(CC(=O)Nc2ccc(C)cc2)c2ccc(C)cc2)cc1  13.6%
8. COc1ccc(OC)c(N(CC(=O)Nc2ccc(I)cc2)S(C)(=O)=O)c1  13.1%
9. O=C(CC1S/C(=N\N=C2/CCCc3ccccc32)NC1=O)Nc1ccccc1C(F)(F)F (stereo not given)  11.6%
10. CCCOc1ccc(C(=O)Nc2ccc(O)c(-c3nc4cc(C)c(C)cc4o3)c2)cc1  11.5%
11. COc1ccc(CSc2nc3ccccc3s2)cc1  11.5%
12. O=C(/C=C/c1ccc(Cl)cc1)Nc1ccc2c(c1)OCO2  11.4%
13. O=C1NC(c2ccccc2OCc2ccccc2)Nc2ccccc21 (stereo not given)  11.4%
14. O=C(O)c1cc(O)ccc1NC(=O)C(c1ccccc1)c1ccccc1  10.4%
15. O=C(Nc1cc(Cl)cc(Cl)c1)S(=O)(=O)c1ccccc1  10.2%
16. O=C(Nc1cccc(NC(=O)c2ccc(Cl)cc2Cl)c1)c1ccccc1F  10%
17. CCOC(=O)CC(=O)Nc1ccc(C(=O)OC)cc1  9.8%
18. Cc1ccc(S(=O)(=O)Nc2ccc(O)c(C)c2)cc1  9.7%
19. CCC(=O)Nc1ccc(NC(=O)c2ccc(OCC(C)C)cc2)cc1  9.6%
20. O=C(/C=C/c1cn(-c2ccccc2)nc1-c1cccs1)c1cccs1  9.4%
21. O=C1NC(=Nc2ccc(F)cc2)S/C1=C\c1cccs1  8.3%
22. O=C(CNC(=O)c1ccc(Br)cc1)c1ccc(-c2ccccc2)cc1  7.2%
23. O=C(COc1cccc(Cl)c1)N=Nc1c(O)[nH]c(=O)[nH]c1=O  6.3%
24. Cc1cc(OCCN2CCCCC2)ccc1Cl  5.2%
25. CN1CCN(C(=O)c2ccccc2NC(=O)c2ccc(Cl)cc2Cl)CC1  5.1%
26. Cc1ccccc1NC(=O)C1CCC(=O)N1 (stereo not given)  5.1%
27. COc1ccc(OC)c(NC(=O)c2cnccn2)c1  4.8%
28. CCOCCOC(=O)c1cccc(NC(=O)/C=C/c2ccc(Cl)cc2Cl)c1  4.7%
29. CCOC(=O)C1=C(C)N(CCOC)C(=O)/C1=C\c1ccccc1[N+](=O)[O-]  3.2%
30. O=C(O)Cn1c(SCc2cccc3ccccc23)nc2ccccc21  3%
31. C/C(=N\NS(=O)(=O)c1ccccc1)c1cccc(Br)c1  2.9%
32. COc1ccc(C(=O)Nc2ccncc2)cc1  2.6%
33. Cc1nn(-c2ccc(C(F)(F)F)cn2)c(C)c1Oc1ccccc1O  0.4%
34. CCCCOc1ccccc1NC(=O)c1cc(SC)ccc1Cl  0.2%
35. O=S(=O)(O)c1cc(OS(=O)(=O)c2ccccc2)cc2ccccc12  -3%
36. COc1ccc(OC)c(C2NC(=O)NC(C)=C2C(=O)Nc2ccc(C)c(Cl)c2)c1 (stereo not given)  -3.1%
37. O=C(Nc1ccc2nc(SCCOc3ccccc3)sc2c1)c1ccccc1Cl  -3.4%
38. Nc1c(NCCCN2CCOCC2)c2ccccc2oc1=O  -4.2%
39. Cc1n[nH]c(=S)n(/N=C/c2ccco2)c1=O  -5.1%
40. COc1ccc([N+](=O)[O-])cc1-c1ccc(/C=c2/sc3nc4cc(C)c(C)cc4n3c2=O)o1  -6%
41. CN1C(=O)/C(=C\c2ccccc2Sc2ccc(Cl)cc2)SC1=S  -6.2%
42. NC(=O)c1ccccc1N=Cc1cc(Cl)cc(Cl)c1O  -7.2%
43. CC(C)(C)NC(=O)c1sc2ccccc2c1Cl  -7.2%
44. COC(=O)C1=C(C)N(C)C(C)=C(C(=O)OC)C1c1cccc(F)c1  -8.3%
45. O=C(NC(C(=O)Nc1nccs1)C12CC3CC(CC(C3)C1)C2)c1ccccc1 (stereo not given)  -8.5%
46. COc1cccc(-c2nc3cc(NC(=O)c4cc5ccccc5o4)ccc3o2)c1  -8.8%
47. O=C(Nc1nc(-c2ccc(Cl)cc2)cs1)C1CCCC1  -8.8%
48. CC1(C(=O)NCc2cccs2)CC1(Br)Br (stereo not given)  -9.2%
49. CCOC(=O)CCC(NC(=O)c1ccc(NCN2C(=O)c3ccccc3C2=O)cc1)C(=O)OCC (stereo not given)  -10.4%
50. C/C(=N\Nc1ncc(Br)cn1)c1cccc([N+](=O)[O-])c1  -11.6%
51. CCn1c(=O)c2c(n3c(=S)[nH]nc13)-c1ccccc1CC21CCCCC1  -13.3%
52. O=C(O)c1ccccc1C(=O)Nc1ccc2nc(SCc3nc4ccccc4[nH]3)sc2c1  -13.4%
53. CC1CCCN(CC(O)COc2ccc(C34CC5CC(CC(C5)C3)C4)cc2)C1 (stereo not given)  -14.4%
54. COc1ccc(C)cc1NC(=O)c1ccc(-n2cnnn2)cc1  -14.6%
55. Cn1c(SC(c2ccccc2)c2ccccc2)nc2ccccc21  -15.4%
